Test results as given in publication PMC5342809.
No constants are given. Whether binding was seen depends on the method and setting. In cells and extracts the contact can be indirect. Some results given as binding are weak or reduced against the parent protein; the word gives no strength. For part of these data: Where a sequence is shown, tags or fusion partners need not be part of it.

Columns and labels:
[1] = molecular target: T1, Smad anchor for receptor activation (SARA) (endogenous) (human (endogenous in HCT116)) (UniProt O95405); experiment: co-IP; endogenous proteins from NP40 lysates of HCT116 cells precipitated with anti-Smad3, anti-TβRI or anti-SARA antibody, normal IgG as control, overnight at 4°C; also with Kindlin-1 siRNA, Kindlin-1 overexpression or re-expression, and TGF-β1 stimulation
T1 sequence: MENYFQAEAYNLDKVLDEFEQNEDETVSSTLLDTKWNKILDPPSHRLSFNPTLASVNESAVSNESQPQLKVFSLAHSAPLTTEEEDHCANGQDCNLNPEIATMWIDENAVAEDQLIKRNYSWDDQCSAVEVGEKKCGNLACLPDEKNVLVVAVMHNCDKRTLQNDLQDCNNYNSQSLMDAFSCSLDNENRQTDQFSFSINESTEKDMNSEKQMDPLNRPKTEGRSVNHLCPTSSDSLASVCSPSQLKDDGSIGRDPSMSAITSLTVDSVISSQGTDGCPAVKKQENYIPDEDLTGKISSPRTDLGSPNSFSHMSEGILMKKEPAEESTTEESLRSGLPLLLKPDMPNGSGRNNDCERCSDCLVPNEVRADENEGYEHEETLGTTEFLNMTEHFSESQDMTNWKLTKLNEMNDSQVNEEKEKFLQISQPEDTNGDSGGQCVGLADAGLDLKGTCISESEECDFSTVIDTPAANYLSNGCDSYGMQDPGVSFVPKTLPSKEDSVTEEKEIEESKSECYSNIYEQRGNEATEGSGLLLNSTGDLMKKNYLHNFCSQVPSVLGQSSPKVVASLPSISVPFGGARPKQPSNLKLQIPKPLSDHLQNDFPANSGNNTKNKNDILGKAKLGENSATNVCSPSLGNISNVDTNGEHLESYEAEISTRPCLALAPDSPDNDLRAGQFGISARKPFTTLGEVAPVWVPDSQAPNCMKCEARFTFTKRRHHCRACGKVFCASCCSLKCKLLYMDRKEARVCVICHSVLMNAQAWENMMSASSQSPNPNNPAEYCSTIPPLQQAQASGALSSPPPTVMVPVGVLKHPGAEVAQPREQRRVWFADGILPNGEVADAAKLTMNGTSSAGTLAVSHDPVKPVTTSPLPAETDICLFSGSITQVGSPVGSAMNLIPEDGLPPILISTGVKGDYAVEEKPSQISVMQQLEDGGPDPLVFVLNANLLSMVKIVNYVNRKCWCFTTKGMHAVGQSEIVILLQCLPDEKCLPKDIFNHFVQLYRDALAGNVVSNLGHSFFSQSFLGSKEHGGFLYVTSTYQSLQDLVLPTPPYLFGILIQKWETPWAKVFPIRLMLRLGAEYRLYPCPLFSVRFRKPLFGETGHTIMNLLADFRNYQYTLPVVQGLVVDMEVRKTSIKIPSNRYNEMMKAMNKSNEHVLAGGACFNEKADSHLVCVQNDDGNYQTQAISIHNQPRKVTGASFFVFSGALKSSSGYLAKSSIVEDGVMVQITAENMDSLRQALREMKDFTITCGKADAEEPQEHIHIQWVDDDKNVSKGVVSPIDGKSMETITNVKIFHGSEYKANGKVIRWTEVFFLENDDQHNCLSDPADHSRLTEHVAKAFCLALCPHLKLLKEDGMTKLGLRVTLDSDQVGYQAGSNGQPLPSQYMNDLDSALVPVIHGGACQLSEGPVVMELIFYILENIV

Flag-Kindlin-1 = molecular target: T2, Flag-Kindlin-1 (UniProt Q9BQL6); experiment: co-IP; anti-Flag antibody on NP40 lysates of HCT116 cells transfected with Flag-Kindlin-1 or its truncations; endogenous partners detected by immunoblot; overnight at 4°C
T2 sequence: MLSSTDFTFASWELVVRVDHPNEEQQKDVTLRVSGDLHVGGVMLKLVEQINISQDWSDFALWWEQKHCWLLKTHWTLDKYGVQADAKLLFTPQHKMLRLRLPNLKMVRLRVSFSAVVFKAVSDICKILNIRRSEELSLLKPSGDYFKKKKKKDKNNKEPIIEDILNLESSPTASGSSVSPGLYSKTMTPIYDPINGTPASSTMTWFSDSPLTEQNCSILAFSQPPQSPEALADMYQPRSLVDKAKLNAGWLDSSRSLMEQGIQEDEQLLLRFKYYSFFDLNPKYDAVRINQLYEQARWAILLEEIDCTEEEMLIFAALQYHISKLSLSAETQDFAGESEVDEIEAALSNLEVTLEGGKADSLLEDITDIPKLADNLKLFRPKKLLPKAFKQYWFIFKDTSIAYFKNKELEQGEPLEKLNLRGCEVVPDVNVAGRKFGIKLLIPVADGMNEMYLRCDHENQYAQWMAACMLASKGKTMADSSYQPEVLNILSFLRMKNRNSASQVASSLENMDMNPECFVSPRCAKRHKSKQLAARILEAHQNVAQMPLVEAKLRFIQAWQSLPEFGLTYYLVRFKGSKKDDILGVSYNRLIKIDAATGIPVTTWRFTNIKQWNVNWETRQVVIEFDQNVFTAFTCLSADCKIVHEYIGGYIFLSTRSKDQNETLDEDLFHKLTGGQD

Flag-Kindlin-1-C = molecular target: T3, Flag-Kindlin-1-C (UniProt Q9BQL6); experiment: as above
T3 sequence: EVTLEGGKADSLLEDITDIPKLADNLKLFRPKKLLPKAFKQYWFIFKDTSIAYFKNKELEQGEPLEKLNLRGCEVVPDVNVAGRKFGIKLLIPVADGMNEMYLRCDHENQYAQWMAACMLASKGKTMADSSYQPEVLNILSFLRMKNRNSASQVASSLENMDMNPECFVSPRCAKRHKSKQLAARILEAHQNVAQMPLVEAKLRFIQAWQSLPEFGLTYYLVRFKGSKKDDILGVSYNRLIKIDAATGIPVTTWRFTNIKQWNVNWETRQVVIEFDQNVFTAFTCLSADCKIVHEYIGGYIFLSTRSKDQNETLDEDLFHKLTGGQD

Measured: binding

B1: TGF-β receptor I (endogenous) (receptor, UniProt P36897 34-503)
chain: LQCFCHLCTKDNFTCVTDGLCFVSVTETTDKVIHNSMCIAEIDLIPRDRPFVCAPSSKTGSVTTTYCCNQDHCNKIELPTTVKSSPGLGPVELAAVIAGPVCFVCISLMLMVYICHNRTVIHHRVPNEEDPSLDRPFISEGTTLKDLIYDMTTSGSGSGLPLLVQRTIARTIVLQESIGKGRFGEVWRGKWRGEEVAVKIFSSREERSWFREAEIYQTVMLRHENILGFIAADNKDNGTWTQLWLVSDYHEHGSLFDYLNRYTVTVEGMIKLALSTASGLAHLHMEIVGTQGKPAIAHRDLKSKNILVKKNGTCCIADLGLAVRHDSATDTIDIAPNHRVGTKRYMAPEVLDDSINMKHFESFKRADIYAMGLVFWEIARRCSIGGIHEDYQLPYYDLVPSDPSVEEMRKVVCEQKLRPNIPNRWQSCEALRVMAKIMRECWYANGAARLTALRIKKTLSQLSQQEGIKM
binds: [1] | Flag-Kindlin-1 | Flag-Kindlin-1-C
